# Source: the RNAGym collection of RNA variant scans (doi:10.7554/elife.90254)
# The source gives no read counts; variants with many changes may rest on few reads.
# B1: LINE1-full (parent)
# chain: UACGUAGGUGGUUUUCCCCUGAUAGUGCUAAGGGGGCCUGGAAGUUUGGACUGGGCAGAGCUCAACACAGCGUGGCAAAGUGGCUGUGGCUAGACUGCCUCUCUGGAUUCCUCGUCACUCAGCAGGGCAUCUCUGAGAGAAAUGCC
# Variants of: B1
# Experiment: self-cleavage, relative activity (ratio to wild type); higher = more cleavage; in vitro, sequencing; the parent is a self-cleaving ribozyme
row,Variant,self-cleavage
1,A2G U13C A64G,0.8
2,A2G U52C U143C,1.19
3,A2G C3U A117U,0.38
4,U1C U73C U130C,0.92
5,A2G U26C G54A A136G,1.29
6,A2G G41A A43G,0.77
7,G4A A59G A117G,0
8,U1C U26A A43G G74A,0.41
9,C3U U52C C111U,0.19
10,A2G A43G A69C U130C,0
11,A2G A6G A107G,0.56
12,C3U U39C A42U A94G,0.24
13,A2G U81A A140G,1.41
14,A2G U14C U115A U130G,1.48
15,U1C U73A A107G U132G,2.7
16,A2U G93A U134A,0.05
17,A2G A67G A77G,0
18,A2G A78G A142G,0.33
19,A2G U15A G36A G127A,0.75
20,C3U U9A U39A U46C U47C U109A A121G,0.92
21,A2G U5A U15C U73C,1.08
22,A2G U9A U29A G53A A142G,1.07
23,A2G U13C A138G,0.8
24,A2G C61U U87A,0.17

row,Variant,self-cleavage
1,G4A A42G G49C G72A U81C,1.25
2,A2U U9A U20C A69G,0.79
3,U1C U26A A57G C76U A77G A136G,0.73
4,A2G U45A A69G U119C A136G G139A,1.15
5,A2G C3U G114A U132C,0.68
6,G4A A78U A92G,0
7,G4A A30U U47A U109C,0
8,A2U U9G U52A,1.02
9,A2G A22G U62A A94G U108C,0
10,C3U U13C G21A U109C,0.41
11,C3A G97A A107G A129G,0.1
12,C3U U15C A59G A69G G75U,0
13,A2G U46A U52A C113U A140G,0.76
14,A2G U15C C118U,0.86
15,C3A G10A U20C A107G,1.5
16,U1G G21A A22G A64U,0.49
17,A2G A69U G106A A138G A142G,0.15
18,A2U A59G U87C,0
19,A2C G10A U143C,1.27
20,A2U U20A A22G A78U A94G,0.97
21,A2G G10A A22G A117G,0.86
22,U1C U130C G137U,0.62
23,C3U A117U A138G,1.28
24,C3A A65G A129U,0

row,Variant,self-cleavage
1,A2G U5A U12A U47A G48A U85A,0.2
2,C3U U62C C68U,0.08
3,A2C U52C G55C A77U A79U,0.09
4,C3A A59U U134A A141G,0.55
5,C3A U96A U104A,0.16
6,A2G U9C A142G,0.54
7,A2U U15C A140G,0.9
8,A2G A57U A64U U96C,0
9,A2U G93A A121G,0.05
10,A2G U26C G75U G88U U108A,0.13
11,A2C A24G A136U,0.85
12,U1G U15A U39A A64G,0.44
13,A2G U45A A77G,1.61
14,A2U A121U A140G,0.77
15,A2G U47C A50G,0.27
16,U1C U52A C61U A129G U132C,0.07
17,A2G U73G A107U,0.92
18,A2G U13C A142G G144A,0.94
19,A2C U73A U134C,1.44
20,C3U A79G A107G,1.62
21,U1C U39C C146A,1.09
22,A2G U87A A136G,0.08
23,A2G A67G A117G,1.31
24,U1G A77G G80A U91G,0.13

row,Variant,self-cleavage
1,C3U A69U U115C,0.06
2,A2G A30G A69G A136U,0.53
3,U1C U62C A79G,0
4,A2G G8C A77G,0.75
5,G4A A22G G55A U62C,0.12
6,A2G G125U A136G A141G,0.89
7,C3U U46C U143A,0.55
8,A2G U91A A138U,0.77
9,A2G A78U G105U U143C,1.91
10,A2G G8C U14C A31U U47C U52A A64G G70A U104A,0.47
11,G4A A77U A78G,0.84
12,A2G A50G U52C C103U U109A,0
13,A2G A65G U100C,0.17
14,U1G U132C A138G,2.55
15,A2G U14C C51U U112C,0.24
16,A2G G34C A138G,1.25
17,A2G A77U A121U A124U A136G,1.2
18,A2G G34A U45C A124G A136U,0.77
19,A2G G7U U26C G35A G125A A142G,0.24
20,A2U A24G C71U,0.61
21,A2G C37G A64U U108A A124U,0.72
22,A2G U15A G54A A64C A65U U119C,0.16
23,A2G U15C U39C,1.07
24,A2G U26C C116U A121C,0

row,Variant,self-cleavage
1,A2G U9A A24G U46C U47A U100A A138G A142G,0
2,A2G U13C U62C,0
3,C3U A24U G27A U85A U87A A138G,0.09
4,C3A A6C U12C U39A,0.89
5,U1C U130C A138G,1.87
6,G4A G7U U81C U102A,0.56
7,A2U C51U U104C A142U,1.47
8,U1C U62A A64G A69G U102C,0
9,U1C U119C U134C A136U,1.03
10,C3U U12G U20A G122U,1.13
11,A2C U91C U100A,0.12
12,A2G U14C A107G A136G,1.41
13,G4A G54A A64G U104A A141G,0.15
14,U1C U47A U52C A138G,1.58
15,U1C U62A U87A U96C U115C,0
16,G4A A43G C103U,0.83
17,C3U U81C U109A,0.66
18,C3U G41U A142C,0.29
19,A2G A78U U119C,1.02
20,A2G G4A A77G U112A,0.78
21,U1C U29C U46C U62A U109C G126A U143A,0.11
22,A2G G11A U46C A117G A141G U143C,1.02
23,G4A A22U U52C A64G A124G,0.38
24,A2G U108A A140G,0.78

row,Variant,self-cleavage
1,A2G U14C G54A A69U U73A G74A,0
2,C3U G55C G106A,0.12
3,A2G U14C U45A A50G U87C,1.31
4,C3G G11A A30G,0.53
5,C3A U62C A65G,0.1
6,A2C A124U A141G,0.77
7,A2G A57G U96C A136U,0.88
8,A2G U12C U39C,0.41
9,A2G C3U G8A G72A,0.74
10,A2G G27A U39C C84G C99U U102A A136U U143C,0.07
11,C3U U13C U96A U130C,0.19
12,A2G A78U A136G,0.88
13,U1G A121U U132C A141G,1.71
14,A2G A43G U108C C145U,1.13
15,A2G A67G U81C,0
16,A2U U13C U15C A121C,2.17
17,A2U A77G U96C,0.18
18,A2G U39C A43G U91A U130C,0.8
19,A2G U46C G54A U96A,0.08
20,A2G U20G G48U U73C U100A,1.05
21,A2G U46C G60A A64C,0.27
22,A2G G11A G93U A94G,0.16
23,A2G A31C A57G U119A,0.28
24,A2C U47G G72A A94U G97A U100C G126A U132C,0

row,Variant,self-cleavage
1,U1G A22G U47A C84A U130C,0.52
2,A2G A50G A136G A140G,0
3,U1C U62C C146U,0
4,A2G A59G U132A,0
5,A2U U15C G34A U52A U85C,0.28
6,A2G G36A A64G C68A A77G G97A,0.03
7,A2C A65G G89C,0.04
8,A2G U13A U47C A64U,0.71
9,A2G A31G A78G U104A,1.67
10,A2G G25A A57U A129G,0.49
11,A2G U45C U108C G125U,1.15
12,U1C U46A A50G,0.84
13,A2G U12C A43G A140G,0.35
14,A2G U100C G126A,0.31
15,A2G U47A A78G A129U A142G,0.54
16,C3U U14C C90U A140G,0
17,A2U U9C U112G,0.71
18,A2G A24G A31U U96A,0.21
19,A2G G54A A67G A117U,0.5
20,A2G C18U C28G A107G,1.67
21,C3U U26A C66U U96G U115C A138G,0
22,A2G G21A G49A A136G,0.6
23,A2G U9C A31U A43G,1.06
